Test results: the supplement of paper PMC7826260
This is one part of the list. Viral Rep nickase domains cut single-stranded DNA in vitro (1 h at 37 °C, 3 µM enzyme); the outer parts of the 90-letter strands are left off. Values are log2 of uncut reads against the no-enzyme pool; more negative means more cut, near 0 not cut, and no call is made. Shares of all reads are compared; values above 0 arise when much of the pool is cut.

What was measured:
Test in all cases: uncleaved DNA left, log2 of reads against the no-enzyme library (log2 ratio); higher = less cleavage (more negative = more Rep cleavage of the k-mer); sequences stand for … in CTCGTCCG…ACCGGAGA
[1] = test system: T1, Rep nickase domain of Muscovy duck circovirus
T1 sequence (protein, residues 1-111, tag omitted): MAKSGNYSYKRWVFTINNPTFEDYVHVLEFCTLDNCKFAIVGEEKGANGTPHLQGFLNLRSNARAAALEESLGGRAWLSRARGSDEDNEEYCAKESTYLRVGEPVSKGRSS
Method: (§1)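 A pool of 90-nt single-stranded DNAs with seven random bases just before the constant AC of the nick site (name = the seven bases) was cut by 3 µM recombinant His6-SUMO-tagged Rep nickase domain (300 nM DNA, 50 mM HEPES pH 8.0, 50 mM NaCl, 1 mM MnCl2, 1 h, 37 °C, three replicates). Uncut DNA was amplified and sequenced.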

[2] = test system: T2, Rep nickase domain of banana bunchy top virus
T2 sequence (protein, residues 1-94, tag omitted): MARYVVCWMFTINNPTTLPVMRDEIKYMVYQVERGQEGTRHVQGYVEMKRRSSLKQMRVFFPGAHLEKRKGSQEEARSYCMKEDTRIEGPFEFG
Method: as §1

[3] = test system: T3, Rep nickase domain of cabbage leaf curl virus
T3 sequence (protein, residues 1-116, tag omitted): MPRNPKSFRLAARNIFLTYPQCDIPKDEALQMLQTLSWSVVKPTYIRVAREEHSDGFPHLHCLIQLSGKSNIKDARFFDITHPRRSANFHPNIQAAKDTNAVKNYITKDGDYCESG
Method: as §1

[4] = test system: T4, Rep nickase domain of chickpea chlorotic dwarf virus
T4 sequence (protein, residues 1-124, tag omitted): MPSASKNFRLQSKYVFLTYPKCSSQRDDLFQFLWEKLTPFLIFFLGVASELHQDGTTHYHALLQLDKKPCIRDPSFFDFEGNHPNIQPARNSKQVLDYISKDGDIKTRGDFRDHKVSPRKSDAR
Method: as §1

[5] = test system: T5, Rep nickase domain of faba bean necrotic yellows virus
T5 sequence (protein, residues 1-98, tag omitted): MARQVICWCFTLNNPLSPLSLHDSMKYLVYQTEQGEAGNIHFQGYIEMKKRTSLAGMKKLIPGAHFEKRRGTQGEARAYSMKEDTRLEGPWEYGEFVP
Method: as §1

[6] = test system: T6, Rep nickase domain of maize striate mosaic virus
T6 sequence (protein, residues 1-117, tag omitted): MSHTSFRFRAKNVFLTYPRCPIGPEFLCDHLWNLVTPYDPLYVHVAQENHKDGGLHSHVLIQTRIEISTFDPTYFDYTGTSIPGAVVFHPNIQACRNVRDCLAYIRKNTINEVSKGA
Method: as §1

[7] = test system: T7, Rep nickase domain of porcine circovirus 2
T7 sequence (protein, residues 2-116, tag omitted): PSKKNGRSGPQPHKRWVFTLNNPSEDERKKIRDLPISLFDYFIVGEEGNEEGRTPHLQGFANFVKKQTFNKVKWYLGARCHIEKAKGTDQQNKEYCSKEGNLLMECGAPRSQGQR
Method: as §1

[8] = test system: T8, Rep nickase domain of tomato golden mosaic virus
T8 sequence (protein, residues 1-124, tag omitted): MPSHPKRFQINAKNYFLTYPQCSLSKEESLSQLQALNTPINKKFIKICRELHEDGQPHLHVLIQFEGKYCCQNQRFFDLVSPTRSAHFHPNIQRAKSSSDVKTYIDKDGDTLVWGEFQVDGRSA
Method: as §1

[9] = test system: T9, Rep nickase domain of tomato yellow leaf curl virus
T9 sequence (protein, residues 1-136, tag omitted): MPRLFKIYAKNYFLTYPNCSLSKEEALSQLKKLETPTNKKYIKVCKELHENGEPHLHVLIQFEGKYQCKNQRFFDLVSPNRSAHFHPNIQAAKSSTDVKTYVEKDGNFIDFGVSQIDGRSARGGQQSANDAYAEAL
Method: as §1

[10] = test system: T10, Rep nickase domain of wheat dwarf virus
T10 sequence (protein, residues 1-137, tag omitted): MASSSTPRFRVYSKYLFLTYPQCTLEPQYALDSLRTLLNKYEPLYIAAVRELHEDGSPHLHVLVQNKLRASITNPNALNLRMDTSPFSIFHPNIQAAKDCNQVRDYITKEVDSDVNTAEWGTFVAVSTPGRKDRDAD
Method: as §1

Sequence	uncleaved DNA left (log2) [1]	uncleaved DNA left (log2) [2]	uncleaved DNA left (log2) [3]	uncleaved DNA left (log2) [4]	uncleaved DNA left (log2) [5]	uncleaved DNA left (log2) [6]	uncleaved DNA left (log2) [7]	uncleaved DNA left (log2) [8]	uncleaved DNA left (log2) [9]	uncleaved DNA left (log2) [10]
GGGTAAG	-0.0182	0.164	0.721	1.7	0.0357	1.8	0.228	0.0317	0.0216	0.0685
CTGTTGG	0.0517	0.0731	-0.415	-0.383	0.0269	-1.11	0.111	0.0499	-0.109	-0.162
CGCTGTA	-0.0383	-0.0125	-0.0851	0.142	-0.129	0.69	-0.247	-0.211	-0.185	0.0913
AACACCT	-0.0984	-0.232	-0.605	-2.57	-0.0443	-0.266	-1.16	-0.0111	-0.12	-0.0461
TCCGGTG	0.158	0.0298	-0.16	-0.21	-0.0153	-0.304	0.306	-0.0415	0.0281	0.017
CACAAGG	0.101	0.0641	0.329	0.962	0.124	0.337	0.208	0.128	0.0241	0.135
GTGCGTC	-0.0452	-0.155	0.162	0.421	-0.105	0.475	0.113	0.0687	0.0327	-0.0648
GAAAGCG	0.031	-0.0663	-0.717	0.533	0.0025	-0.516	0.166	-0.00673	0.0594	-0.146
ACGGTTT	-0.111	-0.218	-0.106	-1.5	-0.107	0.382	-0.118	0.0375	-0.197	-0.251
GTTCCAA	-0.0473	0.0575	0.267	0.981	0.0166	1.77	0.154	0.012	0.1	0.0895
TTCTAGC	0.198	0.0719	-0.084	-0.395	0.116	-0.924	0.361	0.128	0.0908	0.0616
CATTGTA	-0.531	-0.657	-0.748	-1.02	0.041	-1.19	-1.02	0.00414	0.0751	-0.0714
AGAGCCA	0.146	0.133	0.47	0.64	0.142	1.6	0.0604	0.102	0.104	-0.00526
TTATCGG	-0.0563	-0.0207	0.543	1.55	-0.0197	2.07	0.071	0.061	-0.132	0.0232
CCCCCCC	-0.191	0.0378	0.116	-0.0934	0.00775	-0.183	-0.174	-0.0497	-0.12	-0.0485
ACGCTCT	0.118	0.0651	-0.156	-1.84	0.0547	-0.569	-0.0743	-0.0116	-0.0042	0.00167
ATGAGCG	-0.0728	-0.00529	-0.834	-0.366	-0.0862	-1.13	0.121	-0.0776	0.0704	-0.0478
AGCTTAC	0.067	-0.041	-0.0983	-1	-0.0769	-0.179	-0.136	0.0175	0.0414	-0.0312
CACTCAG	0.0383	0.000143	-0.693	-0.453	0.0235	-1.13	0.0318	0.0527	-0.00791	-0.0271
CGGCACG	-0.117	-0.21	-0.652	-0.47	-0.058	-0.802	-0.00899	-0.0772	-0.131	-0.224

Sequence	uncleaved DNA left (log2) [1]	uncleaved DNA left (log2) [2]	uncleaved DNA left (log2) [3]	uncleaved DNA left (log2) [4]	uncleaved DNA left (log2) [5]	uncleaved DNA left (log2) [6]	uncleaved DNA left (log2) [7]	uncleaved DNA left (log2) [8]	uncleaved DNA left (log2) [9]	uncleaved DNA left (log2) [10]
AATCTCG	-0.0253	-0.0157	-1.04	-0.562	-0.0283	-1.32	0.107	-0.0598	-0.0208	-0.0785
CAAGTTC	0.0279	-0.0933	0.0717	-1.65	0.0151	-0.664	0.024	-0.118	-0.069	-0.128
GCTAGTC	0.00465	0.151	0.213	0.6	0.106	0.119	0.132	0.141	0.105	0.0352
AAAGTCC	0.0883	0.0878	-0.000181	-0.562	0.1	-0.302	-0.0244	0.057	0.0625	0.107
ATCGTAC	0.0669	-0.125	-0.156	-0.595	-0.0462	-0.772	0.0367	-0.0206	0.0766	-0.0521
GGTATTT	-0.0305	0.0257	0.484	0.883	-0.145	1.82	-0.253	-0.0666	0.0176	0.0763
GCTCAAT	0.278	0.191	0.331	0.6	0.18	0.574	0.127	0.244	0.308	0.255
GCTTACC	0.0188	0.0186	0.0425	-0.749	0.111	0.573	-0.0513	0.0486	0.105	0.0869
ACCTTGA	-0.0281	0.00487	-0.439	-0.484	-0.1	-1.24	0.0608	0.0397	0.00878	-0.0805
GTTGACC	0.0186	0.109	0.203	0.726	0.00701	0.963	0.193	0.019	0.0324	0.0502
TTGAGAC	0.164	0.161	0.294	0.887	0.179	-0.267	0.278	0.052	0.185	0.16
GATACCT	0.0484	0.1	0.218	0.242	0.0865	0.642	0.0125	0.18	0.125	0.247
TGTGTCT	-0.0311	-0.0496	0.134	-0.538	-0.0791	0.287	-0.281	-0.0855	0.0326	-0.0486
CGAGCGA	-0.101	-0.0233	-0.0829	0.204	-0.147	-0.177	0.0056	-0.0309	-0.094	0.0108
CACATTG	-0.0312	-0.033	-0.718	-0.604	-0.0432	-1.19	0.113	0.0123	0.133	-0.029
ACAACCC	-0.255	-0.116	-0.17	-0.576	-0.118	-0.618	-0.557	-0.0826	-0.106	-0.14
TCCTGTT	-2.91	-0.353	-0.869	-2.14	-0.0461	-0.683	-3.28	-0.231	-0.0712	-0.665
GGGTGCA	0.0588	0.0241	0.774	1.68	0.0218	2.07	0.138	0.0134	-0.123	0.123
CCCCGTA	0.0293	0.117	0.106	-0.756	-0.137	-0.44	-0.133	0.256	0.148	0.0772
TATACTC	0.0163	-0.0663	-0.0101	-1.3	0.0196	-0.385	-0.0366	-0.0798	-0.0277	0.014

Sequence	uncleaved DNA left (log2) [1]	uncleaved DNA left (log2) [2]	uncleaved DNA left (log2) [3]	uncleaved DNA left (log2) [4]	uncleaved DNA left (log2) [5]	uncleaved DNA left (log2) [6]	uncleaved DNA left (log2) [7]	uncleaved DNA left (log2) [8]	uncleaved DNA left (log2) [9]	uncleaved DNA left (log2) [10]
TGCTCCT	-0.397	-0.218	0.0235	-1.2	-0.0611	0.0841	-1.21	-0.131	-0.0938	-0.232
AAACGTC	0.132	0.0527	-0.0159	-0.662	0.137	-0.867	0.0313	0.0118	-0.0151	-0.027
GCTGTCC	-0.0482	0.032	0.132	0.541	-0.0626	0.762	0.00608	-0.0599	-0.136	-0.0752
AGGCATG	0.11	0.0924	0.109	0.64	0.0667	0.693	0.163	0.0206	0.0054	0.133
TTACTAA	0.074	-0.0486	0.0365	-1.42	0.0834	-0.0887	-0.0303	-0.0733	0.0596	0.0262
TTTCTGA	0.162	0.102	0.249	0.23	0.0454	0.148	0.0743	0.01	0.0516	0.0853
AAACCCG	-0.0129	0.0424	-0.851	-0.507	-0.0636	-0.826	-0.857	0.0123	-0.00607	0.0293
ACCCGGA	0.0767	0.0242	0.309	0.741	0.118	0.0278	0.137	0.113	-0.0529	0.0986
TGGTGGG	-0.0608	-0.0893	-0.351	-0.478	-0.00798	-0.736	0.0785	-0.105	0.0274	-0.121
GTCTGGC	0.141	0.103	0.429	0.881	0.0342	1.2	0.219	0.106	0.198	0.0801
CCTGTAT	-0.0538	-0.0433	-0.0323	-0.485	0.0315	-0.434	-0.0717	-0.078	0.0134	-0.0826
GATAGAT	0.235	0.138	0.372	0.726	0.152	1.44	0.0194	0.107	0.0956	0.212
TTTAGAT	0.0943	0.0748	0.167	0.503	0.0467	1	0.079	0.119	0.0401	0.102
GTTTCGG	0.0323	0.0865	0.539	1.36	-0.101	1.88	0.178	0.165	-0.0446	0.146
GCACCTT	0.14	0.0691	0.00199	-1.13	0.0416	0.407	-0.205	0.0187	0.193	0.135
GTTGATA	0.12	0.146	0.376	0.95	0.0729	1.86	0.115	0.166	0.182	0.188
TGTGGGT	0.00717	0.0513	0.272	0.801	-0.116	1.09	0.0318	-0.0467	-0.116	0.0433
CCAGATT	0.0401	-0.177	-0.346	-2	-0.137	-0.312	-0.624	-0.234	-0.0191	-0.235
